Results published in publication PMC12136788.
The other results are listed elsewhere or left out.

T1: UNK ZnF1-3 (human, UniProt Q9C0B0 31-174)
T1 sequence: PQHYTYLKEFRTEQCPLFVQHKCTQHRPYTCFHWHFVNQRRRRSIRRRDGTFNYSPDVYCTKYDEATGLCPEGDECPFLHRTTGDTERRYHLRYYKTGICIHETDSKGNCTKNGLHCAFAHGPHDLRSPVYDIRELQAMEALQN

B1: chr4:115894766:115894767:+_ENSMUSG00000028698_ENSMUST00000030464|mus_hu|motif|central (ssRNA)
RNA: GGGAGUUCUACAGUCCGACGAUCUUCCACACGGAAAUGUACUUCGGGUUUUCCAACGGCCAGUACCAGUCCGGCCAAACGGCCCGAACAGGGUCCUCCCCCUCUCUCCUACAGAACACAACAAAAUGCCCCCGAACUUUCAAGCAACAGAGGAUUGAGCAUCA
B2: chr1:52246310:52246311:-_ENSMUSG00000026103_ENSMUST00000114513|mus_hu|FALSE|FALSE (ssRNA)
RNA: GGGAGUUCUACAGUCCGACGAUCGCCCAUCUUAUCCAGAGGAGGAGACCAGCACAUCAUACCCAUAACAUUGGGGACAACUAAAAGAAUGCCCCCAGCAACUCCAGAUUUUGCAGGAAGACCAACAUGGAAAGCAAACUGCCCCAACAGAGGAUUGAGCAUCA
B3: chr11:58768638:58768639:+_ENSMUSG00000078851_ENSMUST00000108817|mus_mus|motif|central (ssRNA)
RNA: GGGAGUUCUACAGUCCGACGAUCUCUAAUGAGGUUGUGGGUGGCUCUGAAAAGAGCCUUUGGUGUCUGUAAAAGUCGCACGGACGACCGGUAGGGGCCUCACUUGCCCUUGGCCUUGUGGUGGCUCUCGGUCUUCUUGGGCAGCAACAGAGGAUUGAGCAUCA
B4: chr7:118222036:118222037:-_ENSMUSG00000005610_ENSMUST00000162415|mus_hu|FALSE|FALSE (ssRNA)
RNA: GGGAGUUCUACAGUCCGACGAUCAUCAAAGUUUGGUGCAUCUUCUGCCAAUCGCAGACAUAGCUGAGCAUACAGUGAGCUAUACUUUGGCUCUUCUAGGGCUUUGUCCACAAUCAGCAGUAUGACCCCUUUAAGGAUGAGUUUCAACAGAGGAUUGAGCAUCA
B5: 33698877_33698997_61_5pUTR_ENSMUSG00000027677_ENSMUST00000099153|mouse|control|control (ssRNA)
RNA: GGGAGUUCUACAGUCCGACGAUCGACGCCUGAGCUUAGCACGUACGUCGGGCUGUGUGGUUCCUAGGUCGCCAAGGCCAGAGCUCCGGUCUCUUUUUCACCGGGUGCUGCCGAGUUCAGCGGUGCAAGGGUGGCUGGGCGGCCCAACAGAGGAUUGAGCAUCA
B6: chr7:36506639:36506640:-_ENSMUSG00000043671_ENSMUST00000051377|mus_hu|FALSE|FALSE (ssRNA)
RNA: GGGAGUUCUACAGUCCGACGAUCGAACAGCACUAAUGCUUGCAUCAGCAUCAUAAAUUGAUUAAAUUGCCAUGUCAGACUAAAGAGAAAAGUUGAUAUGAAAAUGGCAAGAAGUGUCAGCCUUUCAGAAAGAGGCUGUAAGUUCAACAGAGGAUUGAGCAUCA
B7: chr7:134094464:134094465:+_ENSMUSG00000030683_ENSMUST00000106335|mus_hu|FALSE|FALSE (ssRNA)
RNA: GGGAGUUCUACAGUCCGACGAUCCUCCGUCUCCGUUUAUCUUUCCCUUUAAUUGUUUUUUUUUUUUUUUUUUUUUUCCUCGUAGGAGUCAGCAAAGAAAGACAAUUUCUCUGCCCCUUGGGAUGGAGGGGCAGAAUUGGGCUACAACAGAGGAUUGAGCAUCA
B8: 11454962_11455736_3700_CDS_ENSMUSG00000040720_ENSMUST00000059914|mouse|control|control (ssRNA)
RNA: GGGAGUUCUACAGUCCGACGAUCAAGCAACCUGGUGGUUUGGCUAGUAUACUGUUUUUCUUUAUCUUCUGAAGUGCUUUGCAAGUCUUCUACAAUCAAAUCCAACACAGUUCUCAUGAUCAGAAGAGCAGUUGGAGAGGCAAGCAACAGAGGAUUGAGCAUCA
B9: 7334659_7334779_828_CDS_ENSG00000170743_ENST00000318881|human|control|control (ssRNA)
RNA: GGGAGUUCUACAGUCCGACGAUCGUUACUCCGUCUCCCGUCAUCAUUAUCCAAUGACCUCUGCUUAUAUAACUCUGGUUUAAUUCUACCAAUUCCAGUCAACUGUUCCUGUUUUUGAAGCUGCUGGAUAUUGAAGUCCGGGUUCAACAGAGGAUUGAGCAUCA
B10: chr7:133967480:133967481:+_ENSMUSG00000058966_ENSMUST00000079423|mus_hu|FALSE|FALSE (ssRNA)
RNA: GGGAGUUCUACAGUCCGACGAUCGAAGGAGUUAGGGGUGGAGAAGGGACGCCAAGCCCGGGAAGGAGGGAGAAAACGAUGAGAAGGGGCACAAAGGGGCCAGGGCGGGGACGGGAUGGGGCCAGGGAGUCCGAUGAAACUGGGCAACAGAGGAUUGAGCAUCA
B11: 60831962_60832082_133_5pUTR_ENSMUSG00000072437_ENSMUST00000088237|mouse|control|control (ssRNA)
RNA: GGGAGUUCUACAGUCCGACGAUCCCGUGGGGUAGGGCAGCCUUGCUUCCUUUUAUCGCUCCCGCUUUCUCCUGUGCCCCUCCUCGCUGUCUCGGCCCUGCCCCCUGCGAUCCUCCGCCCGGGCCACUGCGCCCGCGCCCCCGGCAACAGAGGAUUGAGCAUCA
B12: 97379832_97382281_1272_3pUTR_ENSMUSG00000021669_ENSMUST00000077672|mouse|control|control (ssRNA)
RNA: GGGAGUUCUACAGUCCGACGAUCUUUCUUCUUAAGUUCUUCCAUCACAUUCUUGUACGCUUCCUCCACUCGUCUCCUCUUUUCCACUUCCCUAUCGUGUCUUUUUUGCCAGCUCUCUUCCCGUUUUACCAUUAAUUCAAUACACAACAGAGGAUUGAGCAUCA
B13: chr3:105770834:105770835:+_ENSMUSG00000000561_ENSMUST00000010278|mus_hu|FALSE|FALSE (ssRNA)
RNA: GGGAGUUCUACAGUCCGACGAUCACACUUCUCUCUCAUAUAUGUCCCAUCACUAGGGAGCCAGGGGGAAGGGAGUGGGCAUUACACAGGCAAGCCAAACUUUUUAUUCAGCCAGAAAAUGGAUUUCUGAUUCAGUUUAAUGGUCAACAGAGGAUUGAGCAUCA
B14: 62695852_62700603_289_3pUTR_ENSMUSG00000042211_ENSMUST00000048688|mouse|control|control (ssRNA)
RNA: GGGAGUUCUACAGUCCGACGAUCAGCUUCCGAGAGAGGCAUUCCAUGCACAUGAUGUCCUGUAGUGGCAGGUACCUGAAGAUAUGACAGAGCACUUCAUGUGACAGCUGGUUCAUGUAGUCCUUCUCUUCAUCGGCUGUCAUUCAACAGAGGAUUGAGCAUCA
B15: chr5:38529174:38529175:-_ENSMUSG00000029126_ENSMUST00000031009|mus_mus|motif|central (ssRNA)
RNA: GGGAGUUCUACAGUCCGACGAUCGAAAAGCUAAAGUAGCCCUGGCUUACCCAAAAUUACAUUUCACUUUGCCCACUGGCGGAUAAAACAAAACAAAACAAAACAAAAAACCCAAACUGCACCUGCAUUCAGGGCUGUACGUGCCAACAGAGGAUUGAGCAUCA
B16: chr16:45382771:45382772:-_ENSMUSG00000022661_ENSMUST00000163230|mus_mus|mus_mus_mus_hu_True|48_98 (ssRNA)
RNA: GGGAGUUCUACAGUCCGACGAUCCUGGGUCAUGUUAUGGGCCCAAUGGACAGGGAGGGCAUGCUUCUCAAAAAAUGUGAGCUAUUGACUAAGACUAACAAUAUUUAUCUAGCUAUAAAAAUAAGUUAAAUGAAUAAGUUAAGACAACAGAGGAUUGAGCAUCA
B17: chr2:9724813:9724814:-_ENSG00000134308_ENST00000238081|hu_hu|FALSE|FALSE (ssRNA)
RNA: GGGAGUUCUACAGUCCGACGAUCAUUUUUAUUGGGAGGGGAGGUUGGCAACUUAAACAGCAGCAAAUAAAGAGUGAAUAAGGAAACUCCCUGUUGCCACAGAUACACAAGACCUCCGUAUGUGAUACAGGAGCCAUUUCAAUUCAACAGAGGAUUGAGCAUCA
B18: chr10:94818082:94818083:+_ENSG00000138190_ENST00000260762|hu_hu|FALSE|FALSE (ssRNA)
RNA: GGGAGUUCUACAGUCCGACGAUCCUACAUGUGCUGGGACAUACCAUUCACCAAACUUCUCAGCUGUUUCACGACUGUCUCUAUCAACUUCUGUUUGUCUCGAUCAUUCUUCCUGAACUGAGCAAAUAUAUUGUUCUUUUUGCUCAACAGAGGAUUGAGCAUCA
B19: chr1:66480114:66480115:+_ENSMUSG00000015222_ENSMUST00000024639|mus_hu|mus_mus_mus_hu_True|98_98 (ssRNA)
RNA: GGGAGUUCUACAGUCCGACGAUCUGGCCUGUGGCGGAUGUUCUUUAGAGAGCCACAUUUGGAUGUCACAUGGCUUAGGUCUAUUUUCUUGGUAACAAUUUGUACCUGCCCCCCUUUAGGCUGGUAUUUGAUGUUGUCUGUUGACAACAGAGGAUUGAGCAUCA
B20: 117875474_117878920_396_CDS_ENSG00000164754_ENST00000297338|human|control|control (ssRNA)
RNA: GGGAGUUCUACAGUCCGACGAUCUGAUGUCCGUAAUGCCAUUUUCACCUUUGGUGAGAUGAUACUCUCCACGCUGCUCUCUAAAUUACACUCGAACACAUGGGCUUUGGUUAGCUUCUUAUCCCAAUGGGCCGCUAGCCAAAUCAACAGAGGAUUGAGCAUCA
B21: chr2:207631934:207631935:+_ENSG00000118246_ENST00000403094|hu_hu|motif|central (ssRNA)
RNA: GGGAGUUCUACAGUCCGACGAUCCUUCUGGUCAUCAGACAGUCUUUUGGCAAUUGUCCACAUUGCUGUGAAAUAGUUGCGGCGGGGAAAUGUGGGCGCUUUUGAAAAUGCAUCUAACACAUCACUCAGGGAAUUACAUUCCUCCAACAGAGGAUUGAGCAUCA
B22: chr15:64983782:64983783:-_ENSG00000180304_ENST00000326005|perfect_dup|motif|central (ssRNA)
RNA: GGGAGUUCUACAGUCCGACGAUCCCUGGAACAAUGUGCCUGCAGCACUGGAGCUGGGGACACUUACUCAACGGCAAAAUACGGCUGUCCUGGGUGUUUAUCAUCCUCGGUGGCUCUGCUCAGGGUGGGAGGAGGCGGCGCGGGCAACAGAGGAUUGAGCAUCA

These binders were tested against T1, UNK ZnF1-3 (assay: nsRBNS (natural sequence RNA bind-n-seq); RBNS binding buffer (assumed for nsRBNS): 25 mM Tris pH 7.5, 150 mM KCl, 3 mM MgCl2, 0.01% Triton X-100, 500 ug/ml BSA, 20 U/ml SUPERase-In, 4 C; UNK is unkempt and MSI1 is Musashi-1; names of the RNAs are library labels; protein concentration not given here; high values mean tight binding).

Going from B1 to B2, the binding signal rises from 1.11 enrichment R to 2.09 enrichment R.

First: B3
Second: B4
The binding signal of the first is higher: 0.728 enrichment R for the first, 0.618 enrichment R for the second.

First: B5
Second: B6
The binding signal of the first is lower: 1.05 enrichment R for the first, 2.09 enrichment R for the second.

Going from B7 to B8, the binding signal rises from 1.16 enrichment R to 1.43 enrichment R.

First: B9
Second: B10
The binding signal of the first is lower: 0.621 enrichment R for the first, 2.53 enrichment R for the second.

Going from B11 to B12, the binding signal falls from 1.2 enrichment R to 0.401 enrichment R.

Compared with B13, B14 is higher in binding signal: 0.994 enrichment R for the first, 1.2 enrichment R for the second.

Compared with B15, B16 is higher in binding signal: 1.25 enrichment R for the first, 2 enrichment R for the second.

Going from B17 to B18, the binding signal falls from 1.43 enrichment R to 0.449 enrichment R.

Compared with B19, B20 is higher in binding signal: 0.466 enrichment R for the first, 0.522 enrichment R for the second.

First: B21
Second: B22
The binding signal of the first is higher: 1.05 enrichment R for the first, 1.02 enrichment R for the second.
